Laboratory results reported in the antibiotic and cytotoxicity screens of Wong et al. (2023).
The list shows a part of the results.

These compounds were tested on HepG2 (assay: cytotoxicity call (relative viability < 0.9)). Settings: 10 µM.
`C[C@@H]1CN([C@H](C)CO)C(=O)c2cccc(NC(=O)c3cnccn3)c2O[C@H]1CN(C)S(C)(=O)=O` was tested, and the cytotoxicity call was “inactive”.
In the case of `Cc1noc(C)c1NC(=O)N(C)C[C@H]1Oc2ccc(NC(=O)Cn3cnnn3)cc2CC(=O)N([C@@H](C)CO)C[C@@H]1C`, the cytotoxicity call was “inactive”.
With `CN(C)/C=N/[C@@H]1N=C(C2CC2)N(C)C(=O)N1` the cytotoxicity call was “inactive”.
In the case of `COc1ccc(CN(C)C[C@@H]2Oc3ccc(NC(=O)Cn4cnnn4)cc3C(=O)N([C@H](C)CO)C[C@@H]2C)cc1`, the cytotoxicity call was “inactive”.
In the case of `C[C@@H]1CCCCO[C@@H](CN(C)Cc2ccncc2)[C@H](C)CN([C@@H](C)CO)C(=O)c2cc(NC(=O)CCC(F)(F)F)ccc2O1`, the cytotoxicity call was “inactive”.
`C[C@@H]1CN([C@@H](C)CO)C(=O)Cc2cc(NS(=O)(=O)c3ccc(F)cc3)ccc2O[C@@H]1CN(C)S(C)(=O)=O` was tested, and the cytotoxicity call was “inactive”.
For `CCCN(C)C[C@@H]1OCCCC[C@H](C)Oc2ccc(NC(=O)C3CCCCC3)cc2C(=O)N([C@@H](C)CO)C[C@@H]1C`, the cytotoxicity call was “inactive”.
In the case of `CNC(=O)c1c(O)c2ccccc2[nH]c1=O`, the cytotoxicity call was “inactive”.
In the case of `O=C1C[C@@H](O)[C@@H](O)c2c(O)cccc21`, the cytotoxicity call was “inactive”.
In the case of `COc1ccc(NC(=O)Nc2ccc3c(c2)C(=O)N([C@@H](C)CO)C[C@H](C)[C@@H](CN(C)Cc2ccncc2)OCCCC[C@H](C)O3)cc1`, the cytotoxicity call was “inactive”.
`CS(=O)(=O)N1[C@@H]2Cn3c(ccc(C4=CCCCC4)c3=O)[C@H]1[C@@H](C(=O)N1CCOCC1)[C@@H]2CO` was tested, and the cytotoxicity call was “inactive”.
For `COc1ccc(S(=O)(=O)N(C)C[C@@H]2OCc3cn(nn3)CCCC(=O)N([C@H](C)CO)C[C@H]2C)cc1`, the cytotoxicity call was “inactive”.
For `COc1ccc(NC(=O)N(C)C[C@@H]2Oc3ccc(NC(=O)Nc4ccc(C(F)(F)F)cc4)cc3C(=O)N([C@@H](C)CO)C[C@H]2C)cc1`, the cytotoxicity call was “inactive”.
With `Cc1ccc(S(=O)(=O)N(C)C[C@H]2Oc3c(NC(=O)Nc4ccc(C(F)(F)F)cc4)cccc3C(=O)N([C@H](C)CO)C[C@H]2C)cc1` the cytotoxicity call was “inactive”.
For `Cc1noc(C)c1S(=O)(=O)Nc1ccc2c(c1)C(=O)N([C@@H](C)CO)C[C@@H](C)[C@H](CN(C)Cc1ccc(Oc3ccccc3)cc1)O2`, the cytotoxicity call was “inactive”.
`CO[C@@H]1CN(C)C(=O)c2cc(NC(=O)C3CC3)ccc2OC[C@@H](C)N(C(=O)CN2CCOCC2)C[C@H]1C` was tested, and the cytotoxicity call was “inactive”.
In the case of `Cc1ccc(S(=O)(=O)Nc2cccc3c2O[C@@H](CN(C)CC2CC2)[C@H](C)CN([C@H](C)CO)C3=O)cc1`, the cytotoxicity call was “inactive”.
For `COCN(C#N)c1nc(N(C)C)nc(N(C)C)n1`, the cytotoxicity call was “inactive”.
With `C[C@@H]1CN([C@@H](C)CO)C(=O)c2cccc(NS(C)(=O)=O)c2O[C@H]1CN(C)S(=O)(=O)c1ccc(Cl)cc1` the cytotoxicity call was “inactive”.
`C[C@H](CO)N1C[C@H](C)[C@H](CN(C)C(=O)Nc2ccc(F)cc2)Oc2ccc(NC(=O)CCN3CCOCC3)cc2C1=O` was tested, and the cytotoxicity call was “inactive”.
With `C[C@@H]1CN([C@@H](C)CO)C(=O)Cc2cc(NC(=O)NC3CCCCC3)ccc2O[C@H]1CN(C)S(C)(=O)=O` the cytotoxicity call was “active”.
`C[C@H](CO)N1C[C@H](C)[C@@H](CN(C)C(=O)NC2CCCCC2)Oc2ccc(NC(=O)Nc3ccc(C(F)(F)F)cc3)cc2C1=O` was tested, and the cytotoxicity call was “inactive”.
In the case of `C[C@H]1CN([C@@H](C)CO)C(=O)c2cc(NC(=O)Nc3cccc4ccccc34)ccc2O[C@@H]1CN(C)C(=O)Nc1cccc2ccccc12`, the cytotoxicity call was “inactive”.
With `C[C@H](CO)N1C[C@H](C)[C@@H](CN(C)CC2CCCCC2)Oc2ccc(NS(=O)(=O)c3cn(C)cn3)cc2C1=O` the cytotoxicity call was “inactive”.
With `CC(C)NC(=O)Nc1ccc2c(c1)C(=O)N([C@H](C)CO)C[C@H](C)[C@H](CN(C)S(=O)(=O)c1cccs1)O2` the cytotoxicity call was “inactive”.
`C[C@H]1CCCCO[C@@H](CN(C)Cc2ccc(C(F)(F)F)cc2)[C@@H](C)CN([C@@H](C)CO)C(=O)c2cc(NC(=O)Nc3cccc4ccccc34)ccc2O1` was tested, and the cytotoxicity call was “inactive”.
In the case of `CCCN(C)C[C@@H]1Oc2cc(C#Cc3ccc(OC)cc3)ccc2S(=O)(=O)N([C@@H](C)CO)C[C@@H]1C`, the cytotoxicity call was “inactive”.
`CO[C@H]1CN(C)C(=O)c2cc(NC(=O)Nc3ccc(Cl)cc3)ccc2OC[C@H](C)N(C(=O)Nc2c(C)noc2C)C[C@H]1C` was tested, and the cytotoxicity call was “inactive”.
With `Cn1cnc(CN)c1` the cytotoxicity call was “inactive”.
With `CC(C)CC#Cc1ccc2c(c1)O[C@H](CN(C)S(=O)(=O)c1cccc(F)c1)[C@H](C)CN([C@H](C)CO)S2(=O)=O` the cytotoxicity call was “inactive”.
With `CC(C)NC(=O)Nc1ccc2c(c1)C(=O)N([C@H](C)CO)C[C@@H](C)[C@@H](CN(C)S(=O)(=O)c1ccccc1)O2` the cytotoxicity call was “inactive”.
